We go through 111 compounds from PubChem BioAssay AID1240 (Sanford-Burnham Center for Chemical Genomics, 2008).

Hit rate of the full screen: of about 50,000 compounds, about 800 (1.6%) showed an effect of 50% or more. This is one part of the list.

The target of this assay is Bcl-2-like protein 10 (Homo sapiens) (UniProt Q9HD36). Description: TR3 peptide-Bcl-B binding displacers, biochemical primary FP assay, phenotype converters (AID 1240).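 Also: 0% = Bcl-B with tracer peptide and DMSO and 100% = tracer peptide lacking Bcl-B.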 As to conditions: GST-Bcl-B / FITC-TR3 peptide fluorescence polarization; stronger effect = higher value; compound at 3.75 mg/L. (Polarisation of emitted light reports the rotation of a fluorescent probe.)
Chain of UniProt Q9HD36 (Q9HD36 whole entry, looked up): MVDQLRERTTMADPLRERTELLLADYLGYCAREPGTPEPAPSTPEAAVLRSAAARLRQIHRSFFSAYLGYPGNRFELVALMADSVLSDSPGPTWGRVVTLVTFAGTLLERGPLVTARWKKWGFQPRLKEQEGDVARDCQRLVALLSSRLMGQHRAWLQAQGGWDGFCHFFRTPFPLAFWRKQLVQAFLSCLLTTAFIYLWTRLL
For `O=C(Nc1cccc(Cl)c1Cl)c1ccccc1`, the displacement was determined as 6.8%.
Turning to `COc1ccccc1NC(=O)c1sc(-c2ccccc2)nc1C`, the displacement is 9.1%.
As to `O=C(Nc1cccc(Cl)c1)Nc1ccc2c(c1)OCCO2`, the displacement is 4.6%.
Consider `CC(=O)Nc1ccccc1NC(=O)c1cccc(Cl)c1`, for which the displacement is -2.4%.
With `COc1ccc(-n2nc3cc(C)c(NC(=O)COc4ccc([N+](=O)[O-])cc4)cc3n2)cc1`, the displacement is -1.2%.
The figure for `O=[N+]([O-])c1ccc(-c2nnc(-c3ccc4c(c3)OCO4)o2)cc1` is 15.7%; for `O=C(Nc1ccc(Cl)c(Cl)c1)c1ccc(Br)o1` it is -5.1%; for `Cc1ccc(C2CC(C(F)(F)F)n3nc(C(=O)N4CCN(Cc5ccccc5)CC4)cc3N2)cc1` (stereo unspecified) it is -1.1%.
As to `COc1ccc(NC(=O)C2COc3ccccc3O2)cc1OC` (stereo unspecified), the displacement was -8%.
As to `COc1ccc(/C(N)=N/OC(=O)c2cccc(Br)c2)cc1`, the displacement was found to be 0.5%.
The figure for `C=CCOc1ccc(-c2nc3sc4c(c3c(=O)[nH]2)CCCC4)cc1Br` is -20%; for `Cc1ccc(NC(=O)C(=O)NCC(C)C)cc1` it is 11%.
`Cc1ccc(-c2cc(=O)c3cc(Cl)ccc3o2)cc1`: the displacement was 14.4%.
The figure for `COc1cc(NC(=O)c2cc3nc(-c4cccs4)cc(C(F)(F)F)n3n2)cc([N+](=O)[O-])c1` is -0.7%.
Turning to `CCOC(=O)c1c(NC(=S)NC(=O)/C=C/c2ccco2)sc(C)c1C`, the displacement is 23.9%.
As to `Cc1ccc2oc(C(Cl)(Cl)Cl)cc(=O)c2c1`, the displacement stood at 10%.
Consider `O=C(N1CCN(c2ccc([N+](=O)[O-])cc2)CC1)S(=O)(=O)c1ccccc1`, for which the displacement is 12.3%.
With `CCC(Oc1ccccc1)C(=O)Nc1ncccn1` (stereo unspecified), the displacement is -0.1%.
As for `Cc1nc(NC(=O)c2ccccc2)sc1-c1csc(Nc2cccc(C(=O)O)c2)n1`, the displacement is 7%.
`CCCOc1cccc(C(=O)Nc2cc3nn(-c4ccccc4)nc3cc2C)c1`: the displacement was found to be 2.2%.
Take `COc1ccc(/C=C/C(=O)NCC(C)NC(=O)/C=C/c2ccc(OC)c(OC)c2)cc1OC` (stereo unspecified): the displacement was -6.7%.
On to `Cc1cc(C(=O)Nc2ccc(N3CCOCC3)cc2)ccc1[N+](=O)[O-]`, for which the displacement was -4.2%.
The value for `CN(C)c1cccc(C(=O)Nc2nccs2)c1` was 5.7%; that for `CCC(C)NC(=O)C(=O)NCCc1ccccc1` (stereo unspecified) was 5.5%; that for `Cc1ccc(NC(=O)Cc2nnc(NC(=O)Nc3cccc(Cl)c3)s2)cc1` was 5.1%.
Turning to `CCOCCOC(=O)C1=C(C)NC2=C(C(=O)CCC2)C1c1ccc(OC)c(O)c1` (stereo unspecified), the displacement was -8.7%.
On to `Cc1onc(-c2ccccc2)c1[N+](=O)[O-]`, for which the displacement was 3.6%.
Turning to `COc1ccccc1-n1c(CSCC(=O)Nc2ccc3ccccc3c2)nc2ccccc2c1=O`, the displacement was -8.5%.
The figure for `O=C(/C=C/c1ccccc1)CC(=O)C(Cl)(Cl)Cl` is 11%; for `Nc1ccc(-c2cc(-c3ccc(N)cc3)nc(-c3ccc(N)cc3)n2)cc1` it is -3.2%; for `COc1ccc(NC2(c3ccccc3)OC(=O)c3ccccc32)cc1` (stereo unspecified) it is 11.4%.
The figure for `COC(=O)CC1(C(=O)OC)NC(=O)C(N)=C1C(=O)OC` (stereo unspecified) is 4.1%.
In the case of `CCC(Sc1nc2ccccc2[nH]1)C(=O)Nc1ccc(S(N)(=O)=O)cc1` (stereo unspecified), the displacement is -8.1%.
For `CCOC(=O)c1c(-c2cccs2)csc1NC(=O)c1ccc(N2C(=O)CCC2=O)cc1`, the displacement is -8.8%.
Turning to `Clc1ccc(C2NN=C(Cc3ccccc3)S2)c(Cl)c1` (stereo unspecified), the displacement is -3.3%.
Turning to `CCOC(=O)C1CCN(C(=O)Cc2ccc(Cl)cc2)CC1`, the displacement worked out at 19.7%.
`CCN1C(=O)/C(=C\c2ccc(N(C)C)c(Br)c2)SC1=S`: the displacement was determined as 18.2%.
As for `O=C(O)c1c2c(nc3ccccc13)CCCCCC2`, the displacement was -6.4%.
Turning to `CC(NC(=O)/C(=C\c1ccc2c(c1)c1ccccc1n2C)NC(=O)c1ccccc1)c1ccccc1` (stereo unspecified), the displacement is -9.7%.
In the case of `Cc1ccc(/C(O)=C2\C(=O)C(=O)N(c3nncs3)C2c2cccc(Cl)c2)cc1` (stereo unspecified), the displacement worked out at 12.7%.
The value for `Cc1cc2c(CC(O)C(Cl)(Cl)Cl)nc(-c3ccccc3)nc2s1` (stereo unspecified) was 5.1%; that for `CCOc1ccccc1/C=C1/C(=O)NN(c2ccccc2)C1=O` was 15.7%; that for `O=C(/C=C/c1ccc([N+](=O)[O-])cc1)NCCSc1ccccc1` was -0.7%.
The value for `O=C1C(=O)/C(=C/c2ccccc2)CCC/C1=C/c1ccccc1` was -14.3%; that for `CC(NC(=O)/C(C#N)=C/c1ccc(Cl)c(Cl)c1)c1ccccc1` (stereo unspecified) was 5.2%; that for `O=C1NN(c2ccccc2)C(=O)/C1=C/c1cccc(OCc2ccccc2F)c1` was -19.8%.
In the case of `CC1=C(C(=O)Nc2ccccc2)C(c2cccs2)NC(=O)N1` (stereo unspecified), the displacement was -1.5%.
Take `CCOc1ccc(NC(=O)CC2S/C(=N\N=C(/C)c3ccco3)NC2=O)cc1` (stereo unspecified): the displacement is -2%.
Take `COc1cccc(C2/C(=C(\O)c3ccccc3)C(=O)C(=O)N2CCCC(=O)O)c1` (stereo unspecified): the displacement was -8%.
Consider `O=C(CC1SC(=O)NC1=O)Nc1ccc(C(=O)O)cc1` (stereo unspecified), for which the displacement is 15%.
The figure for `Nc1nonc1C(=O)NCCNC(=O)c1ccccc1Cl` is 3%.
Turning to `COc1ccccc1CN1CCN(C(=O)c2cc(OC)c(OC)c(OC)c2)CC1`, the displacement came out at 7.9%.
For `COc1cc(/C=C2\SC(=S)N(NC(=O)c3ccc(Br)cc3)C2=O)ccc1O`, the displacement was -3.5%.
On to `COc1ccc(CNC2CC(C)N(C)CC2C)cc1OC` (stereo unspecified), for which the displacement was -7.4%.
The figure for `CN1CCN(C2=NC(=O)/C(=C/c3ccc([N+](=O)[O-])cc3)S2)CC1` is 7.2%.
With `CCOC(=O)c1c(NC(=O)C23CC4CC(CC(C4)C2)C3)sc(C(C)=O)c1C`, the displacement was -8.2%.
As for `O=C(/C=C/c1ccco1)Nc1cc(Cl)ccc1Cl`, the displacement is -3%.
As for `NS(=O)(=O)c1ccc(N=Cc2ccccc2)cc1`, the displacement turned out to be 9.4%.
The figure for `Cc1ccc(NC(=O)c2sc3ccccc3c2Cl)nc1` is 5.1%; for `CC(=O)N/C(=C\c1ccccc1)C(=O)NC(CC(C)C)C(=O)O` (stereo unspecified) it is -2.1%; for `O=C(c1cccnc1)N1CCN(C(=O)c2ccco2)CC1` it is 3.1%.
Turning to `O=C1NC(=Nc2ccc(O)cc2)S/C1=C\c1ccc(Cl)cc1`, the displacement was determined as 0.3%.
For the compound `C/C(=N\NC(=O)C(C)Oc1ccc(Cl)cc1)c1ccccc1` (stereo unspecified), the displacement turned out to be 4.7%.
Take `CCOC(=O)C(=CNc1ccc([N+](=O)[O-])cc1)C(=O)OCC`: the displacement turned out to be 24.4%.
With `c1ccc(-c2cnc(-c3cccnc3)o2)cc1`, the displacement was determined as 10%.
Turning to `Cc1cccc(C(=O)Nc2ccc3oc(-c4ccc(N(C)C)cc4)nc3c2)c1`, the displacement turned out to be 35.7%.
With `COc1ccc2nc(NC(=O)COC(=O)CN3C(=O)c4ccccc4C3=O)sc2c1`, the displacement was 18.6%.
On to `Cc1c(Br)c(C(F)(F)F)nn1CC(=O)Nc1cc(C(F)(F)F)ccc1Cl`, for which the displacement was found to be 10%.
In the case of `CCOc1cc(OCC)cc(C(=O)Nc2ccc(Cc3ccncc3)cc2)c1`, the displacement was -6.4%.
The figure for `COC(=O)C1=C(C)N(c2cccc(C)c2)C(=O)/C1=C\c1ccccc1[N+](=O)[O-]` is 9.9%.
On to `NCC(O)C12CC3CC(CC(C3)C1)C2` (stereo unspecified), for which the displacement was -1.4%.
For the compound `COc1ccc(C2Nc3ccccc3-c3nnc(SC)nc3O2)c(OC)c1` (stereo unspecified), the displacement was 13.5%.
Turning to `CN1C(=O)/C(=C/c2ccc(OC(=O)c3ccco3)cc2)SC1=S`, the displacement came out at 14.7%.
In the case of `CCOc1ccc2nc(NC(=O)c3ccc(Cl)cc3)sc2c1`, the displacement stood at 5.6%.
`Cc1onc(-c2ccccc2Cl)c1C(=O)Nc1ccc(C(N)=O)cc1`: the displacement is 4.7%.
Consider `Cc1[nH]n(-c2ccccc2)c(=O)c1/C=N/NCc1ccccc1`, for which the displacement is -22%.
Take `Cc1ccc(S(=O)(=O)n2cccc2)cc1`: the displacement is -9.1%.
As to `COc1ccc(-n2nc3cc(C)c(NC(=O)c4cccc5ccccc45)cc3n2)cc1`, the displacement came to 2.4%.
Regarding `CC(=O)OC1(C(=O)O)C2CC3CC(C2)CC1C3` (stereo unspecified), the displacement was -4.4%.
For the compound `CC(Oc1ccccc1)C(=O)Nc1ccc(I)cc1` (stereo unspecified), the displacement was determined as 10.1%.
The value for `COc1cc2c(cc1OC)-c1nnc(-c3ccc(Br)o3)n1C(C)(C)C2` was -2.5%; that for `O=C(c1cccc(F)c1)N1CCN(c2cc(N3CCOCC3)c(F)cc2[N+](=O)[O-])CC1` was -6.5%; that for `Cc1ccc(/C(O)=C2/C(=O)C(=O)N(CCCn3ccnc3)C2c2ccccc2F)cc1` (stereo unspecified) was 9%.
The value for `O=C(Nc1ncc(Cc2cc(Cl)ccc2Cl)s1)c1ccccc1Br` was 5.4%; that for `C=CCOc1ccc(/C=C2\C(=O)NC(C)=C2C(=O)OC)cc1OC` was 33.1%; that for `CCN(CC)CCCCOc1ccc(Cl)c(C)c1` was -10.7%.
`Fc1ccccc1/C=N/Nc1ccccn1`: the displacement came to 15.8%.
As for `Cc1ccc(N=Cc2ccc(C#N)cc2)cc1F`, the displacement is -9.7%.
The value for `O=C(c1ccc(S(=O)(=O)N2CCCC2)cc1)N1CCCc2ccccc21` was 0.6%; that for `CCOC(=O)c1sc(NC(=O)c2ccc(Br)s2)nc1-c1ccccc1` was -10.2%; that for `CCC1CCCCN1Cc1c(O)ccc2c(=O)c(-c3ccc(Cl)cc3)coc12` (stereo unspecified) was 4.3%.
The value for `Cc1cc(C)c(C(=O)c2ccc(C(=O)O)cc2)c(C)c1` was 3.1%.
As for `CCOc1ccc(NC(=O)c2c(NC(=O)c3ccco3)sc3c2CCC(C)C3)cc1` (stereo unspecified), the displacement was determined as 1%.
The value for `Clc1ccc(-c2nc(-c3cccnc3)no2)c(Cl)c1` was 1.1%.
For `CCc1ccc(Nc2cc(C)nc3ncnn23)cc1`, the displacement was 3.7%.
`CCN(CC)CCN1C(=O)C(O)=C(C(=O)/C=C/c2ccccc2)C1c1ccccc1[N+](=O)[O-]` (stereo unspecified): the displacement turned out to be 3.2%.
The value for `CCCCN1C(=O)/C(=C/c2ccc(OC)cc2OC)SC1=S` was 6.8%; that for `O=C(Nc1ccc(Br)cc1)c1cccc2c1C(=O)c1ccccc1-2` was 5.8%.
`CCN1C(=O)/C(=C\c2cccc(O)c2)C(C(=O)OC)=C1C`: the displacement is -14.6%.
Turning to `COc1cc(C=NN2CCN(Cc3ccccc3)CC2)cc(OC)c1OC`, the displacement was -9.5%.
The value for `COc1cc(NC(=O)c2cccc([N+](=O)[O-])c2C)cc(OC)c1` was 4.1%; that for `CCOC(=O)C1=NN(C(=O)c2cccc([N+](=O)[O-])c2)C(O)(c2ccc(Cl)cc2)C1` (stereo unspecified) was -21.4%; that for `COC(=O)c1ccccc1NC(=O)c1ccc(Cl)cc1` was 1%.
For the compound `C=CCNC(=O)COc1cccc(C)c1`, the displacement came out at 6.2%.
With `O=C(NCCCN1CCOCC1)c1nn2c(c1Br)NC(c1cccs1)CC2C(F)(F)F` (stereo unspecified), the displacement stood at 5.9%.
As for `O=C(NC1CCN(Cc2ccccc2)CC1)c1ccc(Br)cc1`, the displacement was -16.1%.
In the case of `Clc1ccc(/C=N\N2CCN(c3ccc(Cl)cc3)CC2)cc1`, the displacement was -8%.
On to `Cc1cccc(NC(=O)c2cc(-c3cccs3)nc3ccccc23)c1`, for which the displacement was -3%.
As to `NC(=O)C1CCN(c2ccc(C(F)(F)F)cc2[N+](=O)[O-])CC1`, the displacement is -0.4%.
The figure for `CN(C)c1ccc(/C=N\OC(=O)Nc2ccccc2Cl)cc1` is 7.2%; for `COc1ccc(Cl)cc1C(=O)Nc1cccc(C)c1C` it is -7.7%.
